The whole screen tested about 150,000 compounds, of which about 540 (0.36%) showed an effect of 50% or more. The list shows a part of the results.

In this experiment the test system is Plasmodium falciparum. Description: Primary screen in NF54 nanoGlo assay, in single point, at 2uM, 72h; a lower Z score goes with more inhibition. In kind it is functional, Erythrocyte. The conditions noted are these: timepoint 72 hour.
What is called % Inhibition is the relative decrease from the control value, in per cent. In the case of `O=C(Nc1ccon1)c1csc2c1CCCC2`, the “% Inhibition” value stood at 6% and the Z score was -0.65.

For the molecule `Cc1cccc(N2CCN([C@H]3CCC(=O)N(CCCC(C)C)CC3)CC2)c1C`, the “% Inhibition” value is on record as -11% and the Z score is 1.27.

For `Cc1c(Cl)ccc2c(C(=O)N3CCOCC3)cc(-c3ccc4c(c3)OCO4)nc12`, the “% Inhibition” value is -12% and the Z score is reported as 1.71.

As to `Cc1cccnc1-c1nc(-c2cccc(-n3c(C)c[nH]c3=O)c2)no1`, the “% Inhibition” value is given as -7% and the Z score was 0.87.

Consider `CC[C@]1(CO)CCCN(C(=O)C2CCc3ccccc3CC2)C1`, for which the “% Inhibition” value is reported as -1% and the Z score is 0.19.

For `CC(C)COc1ncc(C(=O)N2CC(=O)N[C@@H](C)C2)cc1Cl`, the “% Inhibition” value turned out to be 7% and the Z score is given as -1.

With `CCCNS(=O)(=O)c1ccc(C(=O)N2C[C@H]3CC[C@@H](C2)N(C)C3)cc1`, the “% Inhibition” value is -7% and the Z score worked out at 1.2.

Turning to `CCS(=O)(=O)C1CCN(Cc2cn(-c3ccc(F)c(Cl)c3)nn2)CC1`, the “% Inhibition” value is recorded as 8% and the Z score is -0.85.

Regarding `CC(C)(C)OC(=O)NC[C@H]1CCN(CCOc2cccc(C#N)c2)C1`, the “% Inhibition” value is recorded as -10% and the Z score is reported as 0.91.

On to `CC(=O)c1ccc(CNc2cnc3ccccc3n2)nc1C`, for which the “% Inhibition” value is listed as -7% and the Z score is 0.88.

As for `Cc1cc(N2CC[C@@]3(O)CCCC[C@H]3C2)nc(N)n1`, the “% Inhibition” value is given as -8% and the Z score is 1.39.

In the case of `N#Cc1nccnc1O[C@H]1CCN(C(=O)Cc2c[nH]c3ccccc23)C1`, the “% Inhibition” value is 2% and the Z score is on record as -0.24.

On to `C[C@H]1CN(c2nnc(Cc3ccn[nH]3)n2CC(C)(C)C)CCO1`, for which the “% Inhibition” value is on record as -4% and the Z score is recorded as 0.61.

On to `Cc1n[nH]c([C@H]2CN(C(=O)OCC(F)(F)F)C[C@@H]2C2CC2)n1`, for which the “% Inhibition” value was determined as 26% and the Z score was -4.22.

As for `CNc1nc(NC[C@H]2CCN(C3CCCCC3)C2)ncc1F`, the “% Inhibition” value is given as -8% and the Z score worked out at 1.17.

For `CNS(=O)(=O)CCC(=O)N[C@@H](C)Cc1ccc(C)s1`, the “% Inhibition” value was -7% and the Z score is recorded as 0.75.

Consider `O=C(NCCOCCN1C(=O)CCC1=O)c1ccoc1`, for which the “% Inhibition” value was -7% and the Z score was 1.17.

With `Nc1c(C(=O)NC2CCCC2)sc2ncccc12`, the “% Inhibition” value is recorded as -4% and the Z score was 0.62.

In the case of `O=C(C1Cc2ccccc2C1)N1C[C@@H]2NCCO[C@H]2C1`, the “% Inhibition” value is on record as -6% and the Z score was determined as 0.53.

For `O=C(c1cc(-c2ccccc2)[nH]n1)N1CCO[C@H](c2ccccc2)C1`, the “% Inhibition” value is 4% and the Z score is recorded as -0.6.

Turning to `O=C1C[C@@H](c2ccc[nH]c2=O)c2c(ccc3nn(-c4ccc(F)cc4)nc23)N1`, the “% Inhibition” value is recorded as 0% and the Z score was 0.02.

As for `COCCN1CCCCC[C@H](O)c2cc(C(=O)N(C)CCCc3c(C)nn(C)c3C)ccc21`, the “% Inhibition” value is -8% and the Z score worked out at 1.47.

For `C[C@@H](c1ccc(Cl)cc1Cl)N(C)CC(N)=O`, the “% Inhibition” value is on record as -9% and the Z score is 0.85.

With `CC(C)[C@H](C)N(Cc1cnc2ncccn12)C1CC1`, the “% Inhibition” value is -8% and the Z score came to 1.35.

In the case of `CCNC(=O)C(C)N1C(=O)C2(CCN(CC(C)CC)CC2)Nc2ccccc21` (centres undefined), the “% Inhibition” value was -1% and the Z score stood at 0.1.

Regarding `CN(C)c1ccc(NC(=O)C(=O)NCCC(c2ccccc2)c2ccccc2)cc1`, the “% Inhibition” value came out at 0% and the Z score was -0.01.

`O=C(CCc1cc(Cl)ccc1Br)NC(CO)CO`: the “% Inhibition” value is -6% and the Z score is 0.72.

Turning to `Cc1c(C)n(C[C@H](O)CN2CCOCC2)c2ccc(F)cc12`, the “% Inhibition” value is given as -8% and the Z score amounted to 1.04.

`CCOC(=O)N1CCc2c(nc(-c3ccc(F)cc3)n(CC(=O)Nc3ccc(Cl)cc3)c2=O)C1`: the “% Inhibition” value was found to be 34% and the Z score is reported as -3.88.

In the case of `CC(=O)N1CCC(Cc2ccc(C(=O)N3CCCc4ccccc43)cc2)CC1`, the “% Inhibition” value is listed as -12% and the Z score was determined as 2.14.

For the molecule `CC(C)n1ccc2cc(C(=O)N3CCN(S(C)(=O)=O)CC3)ccc21`, the “% Inhibition” value is -9% and the Z score amounted to 1.23.

Take `CC1(C)[C@@H](Nc2ncncc2C#N)[C@@H]1c1ccccc1`: the “% Inhibition” value is on record as -2% and the Z score was found to be 0.46.

In the case of `CC(C)(CO)C(=O)N[C@H]1C[C@@H]1c1ccccc1OC(F)F`, the “% Inhibition” value is -16% and the Z score was 1.87.

Take `CC(C)(C)OC(=O)N1CC(O)(C2(C(=O)N3CC[C@H](F)C3)CCC2)C1`: the “% Inhibition” value stood at 7% and the Z score was -0.91.

With `Cc1ccc(=O)n(CC(=O)N(c2cccc(F)c2)C2CCCC2)n1`, the “% Inhibition” value was found to be 3% and the Z score is recorded as -0.33.

For `CCN1CCC[C@@H]1CNC(=O)c1cc(-c2ccc(OC)cc2)nc2ccc(C(C)C)cc12`, the “% Inhibition” value was found to be 6% and the Z score is reported as -0.72.

Take `CC(C)c1n[nH]c2c1CN(Cc1cccc(C(=O)O)c1)CC2`: the “% Inhibition” value is -10% and the Z score is 2.08.

`COc1cc(-c2nc3[nH]cnn3c2Nc2c(C)cccc2C)ccc1O`: the “% Inhibition” value is recorded as -15% and the Z score is given as 1.65.

For the molecule `CN1c2ccccc2N(CCNC(=O)c2cncc(Br)c2)S1(=O)=O`, the “% Inhibition” value was -11% and the Z score turned out to be 1.62.

As to `Cc1nn(CCCNC(=O)CCc2ccncc2)c(C)c1Cl`, the “% Inhibition” value is listed as -8% and the Z score is listed as 1.24.

With `Cn1cncc1CC(=O)N(C1CC1)C1CN(C(=O)OC(C)(C)C)C1`, the “% Inhibition” value is listed as 12% and the Z score was -1.67.

In the case of `Cc1cnc(CN2C[C@]3(CCCN(C(=O)c4cn(C)nc4C)C3)CCC2=O)cn1`, the “% Inhibition” value is -9% and the Z score worked out at 1.06.

(Values after ChEMBL document CHEMBL4888484, “Replenishing the malaria drug discovery pipeline: Screening and hit evaluation of the MMV Hit Generation Library 1 (HGL1) against asexual blood stage Plasmodium falciparum ,using a nano luciferase reporter read-out” (2022).)
